Reference: patent publication US7476680B2, “Substituted heterocyclic compounds for treating multidrug resistance” (H. Lee Moffitt Cancer Center & Research Institute, Inc., priority 2000, dated 2009)
At least one read-out could not be matched to a standard name with certainty.

system: NIH-MDR1-G185 cells; test: Fluorescent substrate accumulation assay (BODIPY-FL Taxol); format: cell-based; conditions: BODIPY-FL Taxol 500 nM, modulator 10 micromolar, 40 min at 37° C.; fluorescence with modulator / without modulator
Experimental: Fluorescent Substrate Accumulation Assay
NIH-MDR1-G185 cells (obtained from M. Gottesman, NIH) were harvested and resuspended in RPMI-1640 containing L-glutamine, 10% Cosmic Calf Serum and penicillin-streptomycin. Cell suspension aliquots of 175 microliters (1×10^5 cells) were added to individual wells of a 96 well microtiter plate and preincubated for 15 min at 37° C. with 20 microliters MDR modulator diluted in cell culture media to give a final concentration of 10 micromolar. Control wells received no modulating agent. BODIPY-FL Taxol (Molecular Probes, Eugene, Oreg.) was added to each well in 10 microliter aliquots to give a final concentration of 500 nM and cells were incubated for 40 min at 37° C. Cells were centrifuged at 100×g for 5 min at 4° C. and the cell pellet washed with 200 microliters cold PBS to remove fluorescent medium from wells. Cells were centrifuged once more, media removed, and cells resuspended in 200 microliters cold PBS. Fluorescence accumulation was measured in a fluorescence plate reader fitted with an excitation filter of 485 nm and an emission filter of 538 nm. BODIPY-FL taxol accumulation in the cells was calculated as follows: Accumulation Index=(fluorescence in NIH-MDR1-G185 cells in the presence of modulator)/(fluorescence in NIH-MDR1-G185 cells in absence of modulator)

Compared with `CC(C)(C)OC(=O)NC(Cc1ccccc1)C(O)CN1CCCC(C(=O)NC(CCCc2ccccc2)CCCc2ccccc2)C1` (stereo not shown) [Example 19, (1-benzyl-2-hydroxy-3-{3-[4-phenyl-1-(3-phenyl-propyl)-butylcarbamoyl]-piperidine-1-yl}-propyl)-carbamic acid tert-butyl ester], `O=C(NC(Cc1ccccc1)[C@@H](O)CN1CCCC(C(=O)NC(CCCc2ccccc2)CCCc2ccccc2)C1)c1ccc2ncccc2c1` (stereo partly shown) [Example 21, quinoline-6-carboxylic acid (1-benzyl-2-hydroxy-3-{3-[-phenyl-1-(3-phenyl-propyl)-butylcarbamoyl]-piperidin-1-yl}-propyl)-amide] is higher in “Accumulation Index” value: 5 for the first, 8 for the second.

Going from `O=C(NC(CCCc1ccccc1)CCCc1ccccc1)C1CCN(C[C@@H](O)COc2ccnc3ccccc23)CC1` [Example 84, (R)-1-[2-hydroxy-3-(quinolin-4-yloxy)-propyl]-piperidine-4-carboxylic acid [4-phenyl-1-(3-phenyl-propyl)-butyl]-amide] to `O=C(NC(CCCc1ccccc1)CCCc1ccccc1)C1CCN(C[C@@H](O)COc2cccc3ncccc23)CC1` [Example 5, (R)-1-[2-hydroxy-3-(quinolin-5-yloxy)-propyl]-piperidine-4-carboxylic acid [4-phenyl-1-(3-phenyl-propyl)-butyl]-amide], the “Accumulation Index” value rises from 9 to 10.

First: O=C(NC(CCCc1ccccc1)CCCc1ccccc1)C1CCN(C(=O)C2CCN(C[C@@H](O)COc3cccc4ncccc34)CC2)CC1 [Example 64, N-{1-[2-(R)-hydroxy-3-(quinolin-5-yloxy)-propyl]-piperidine-4-carbonyl}-piperidine-4-carboxylic acid [4-phenyl-1-(3-phenyl-propyl)-butyl]-amide]
Second: O=C(NC(CCCc1ccccc1)CCCc1ccccc1)C1CCCCN1C(=O)C1CCN(C[C@@H](O)COc2cccc3ncccc23)CC1 (stereo partly drawn) [Example 69, N-{1-[2-(R)-hydroxy-3-(quinolin-5-yloxy)-propyl]-piperidine-4 carbonyl}-piperidine-2-carboxylic acid [4-phenyl-1-(3-phenyl-propyl)-butyl]-amide]
The “Accumulation Index” value of the first is lower: 8 for the first, 9 for the second.

`O=C(NCCCCc1ccccc1)[C@H]1CN(C[C@@H](O)COc2cccc3ncccc23)CC[C@H]1C(=O)NCCCCc1ccccc1` (stereo in doubt) [Example 11, cis-(R)-1-[2-hydroxy-3-(quinolin-5-yloxy)-propyl]-piperidine-3,4-dicarboxylic acid bis-[(4-phenyl-butyl)-amide]] and `O=C(NCCCCc1ccccc1)C1CN(C[C@@H](O)COc2cccc3ncccc23)CC[C@H]1C(=O)NCCCCc1ccccc1` (stereo partly drawn) [Example 10, trans-(R)-1-[2-hydroxy-3-(quinolin-5-yloxy)-propyl]-piperidine-3,4-dicarboxylic acid bis-[(4-phenyl-butyl)-amide]] are the same in “Accumulation Index” value: 11 for the first, 11 for the second.

First: COc1cc(C(=O)C(=O)N2CCCC(C(=O)NC(CCCc3ccccc3)CCCc3ccccc3)C2)cc(OC)c1OC (stereo not shown) [Example 26, 1-(3,4,5-trimethoxyglyoxyl)-piperidine-3-carboxylic acid [4-phenyl-1-(3-phenyl-propyl)-butyl]-amide]
Second: COc1cc(OC[C@H](O)CN2CCCC(C(=O)NC(CCCc3ccccc3)CCCc3ccccc3)C2)cc(OC)c1OC (stereo partly shown) [Example 15]
The “Accumulation Index” value of the first is lower: 5 for the first, 9 for the second.

First: O=C(NCc1ccccc1)C1CCN(C[C@@H](O)COc2cccc3ncccc23)CC1 [Example 35, (R)-1-[2-hydroxy-3-(quinolin-5-yloxy)-propyl]-piperidine-4-carboxylic acid benzyl amide]
Second: O=C(NCCCCc1ccccc1)C1CCN(C[C@@H](O)COc2cccc3ncccc23)CC1 [Example 34, (R)-1-[2-hydroxy-3-(quinolin-5-yloxy)-propyl]-piperidine-4-carboxylic acid 1-[4-(phenyl)-butyl]amide]
The “Accumulation Index” value of the first is higher: 7 for the first, 6 for the second.

Compared with `CN(CC(=O)N1CCC(C(=O)NC(CCCc2ccccc2)CCCc2ccccc2)CC1)C[C@@H](O)COc1cccc2ncccc12` [Example 56, 1-{N-[2-(R)-hydroxy-3-(quinolin-5-yloxy)-propyl]-(N-methyl)-2-aminoacetyl}-piperidine-4-carboxylic acid [4-phenyl-1-(3-phenyl-propyl)-butyl]-amide], `CN(CC(=O)NC(CCCc1ccccc1)CCCc1ccccc1)C(=O)C1CCN(C[C@@H](O)COc2cccc3ncccc23)CC1` [Example 61, N-{1-[2-(R)-hydroxy-3-(quinolin-5-yloxy)-propyl]-piperidine-4-carbonyl}-(N-methyl)-2-aminoacetic acid [4-phenyl-1-(3-phenyl-propyl)-butyl]-amide] is lower in “Accumulation Index” value: 9 for the first, 7 for the second.

Compared with `O=C(OCC(O)CN1CCCC(C(=O)NC(CCCc2ccccc2)CCCc2ccccc2)C1)c1ccc2ncccc2c1` (stereo not shown) [Example 18, quinoline-6-carboxylic acid 2-hydroxy-3-{3-[4-phenyl-1-(3-phenyl-propyl)-butylcarbamoyl]-piperidin-1-yl}-propyl ester], `O=C(NC(CCCc1ccccc1)CCCc1ccccc1)C1CCCN(C[C@@H](O)COc2cccc3ncccc23)C1` (stereo partly shown) [Example 14] is lower in “Accumulation Index” value: 9 for the first, 8 for the second.

Compared with `O=C(C1CCCN(C[C@@H](O)COc2cccc3ncccc23)C1)N1CCN(C(c2ccccc2)c2ccccc2)CC1` (stereo partly drawn) [Example 39, (R)-1-[2-hydroxy-3-(quinolin-5-yloxy)-propyl]-piperidine-3-carboxylic acid 4-[1-(diphenylmethyl)-piperazine] amide], `O=C(NCCC(c1ccccc1)c1ccccc1)C1CCCN(C[C@@H](O)COc2cccc3ncccc23)C1` (stereo partly drawn) [Example 42, (R)-1-[2-hydroxy-3-(quinolin-5-yloxy)-propyl]-piperidine-3-carboxylic acid 1-[3,3-(diphenyl)-propyl]amide] is lower in “Accumulation Index” value: 13 for the first, 12 for the second.

Compared with `O=C(NC(CCCc1ccccc1)CCCc1ccccc1)C1CCN(C(=O)CC(O)CN2CCc3ccccc3C2)CC1` (stereo not shown) [Example 29, 1-{3-hydroxy-4-[2-(1,2,3,4-tetrahydroisoguinoline)]-butyryl}-piperidine-4-carboxylic acid [4-phenyl-1-(3-phenyl-propyl)-butyl]-amide], `O=C(NC(CCCc1ccccc1)CCCc1ccccc1)C1CCN(C[C@@H](O)COc2ccc3ncccc3c2)CC1` [Example 82, (R)-1-[2-hydroxy-3-(quinolin-6-yloxy)-propyl]-piperidine-4-carboxylic acid [4-phenyl-1-(3-phenyl-propyl)-butyl]-amide] is higher in “Accumulation Index” value: 6 for the first, 7 for the second.

First: O=C(NCC1CCN(CC(O)COc2cccc3ncccc23)CC1)C(CCCc1ccccc1)CCCc1ccccc1 (stereo not shown) [Example 46, 5-phenyl-2-(3-phenyl-propyl)-pentanoic acid {1-[2-hydroxy-3-quinolin-5-yloxy)-propyl]-aminomethyl-piperidin-4-ylamide]
Second: O=C(NC1CCN(C[C@H](O)COc2cccc3ncccc23)CC1)C(CCCc1ccccc1)CCCc1ccccc1 (stereo in doubt) [Example 25, 5-phenyl-2-(3-phenyl-propyl)-pentanoic acid {1-[2-hydroxy-3-(quinolin-5-yloxy)-propyl]-piperidin-4-yl}-amide]
The “Accumulation Index” value of the first is lower: 8 for the first, 12 for the second.

`O=C(N[C@@H](Cc1cccnc1)C(=O)NC(CCCc1ccccc1)CCCc1ccccc1)C1CCN(C[C@@H](O)COc2cccc3ncccc23)CC1` [Example 80, N-{1-[2-(R)-hydroxy-3-(quinolin-5-yloxy)-propyl]-piperidine-4-carbonyl}-3-(3-pyridyl)-alanine [4-phenyl-1-(3-phenyl-propyl)-butyl]-amide] and `O=C(NC(CCCc1ccccc1)CCCc1ccccc1)C1CCCN(C(=O)C2CCCN(C[C@@H](O)COc3cccc4ncccc34)C2)C1` (stereo partly drawn) [Example 72, N-{1-[2-(R)-hydroxy-3-(quinolin-5-yloxy)-propyl]-piperidine-3-carbonyl}-piperidine-3-carboxylic acid [4-phenyl-1-(3-phenyl-propyl)-butyl]-amide] are the same in “Accumulation Index” value: 9 for the first, 9 for the second.

Going from `O=C(NC(CCCc1ccccc1)CCCc1ccccc1)C1CCCN(C(=O)CCc2cccnc2)C1` (stereo not shown) [Example 16, 1-(3-pyridin-3-yl-propionyl)-piperidine-3-carboxylic acid [4-phenyl-1-(3-phenyl-propyl)-butyl]-amide] to `O=C(NC(CCCc1ccccc1)CCCc1ccccc1)C1CCCCN1C(=O)C1CCCN(C[C@@H](O)COc2cccc3ncccc23)C1` (stereo partly drawn) [Example 75, N-{1-[2-(R)-hydroxy-3-(quinolin-5-yloxy)-propyl]-piperidine-2-carbonyl}-piperidine-3-carboxylic acid [4-phenyl-1-(3-phenyl-propyl)-butyl]-amide], the “Accumulation Index” value rises from 8 to 10.

First: O=C(C1CCN(C[C@@H](O)COc2cccc3ncccc23)CC1)N(Cc1ccccc1)Cc1ccccc1 [Example 36, (R)-1-[2-hydroxy-3-(quinolin-5-yloxy)-propyl]-piperidine-4-carboxylic acid dibenzyl amide]
Second: O=C(NCCCCc1ccccc1)C1CCCN(C[C@@H](O)COc2cccc3ncccc23)C1 (stereo partly drawn) [Example 41, (R)-1-[2-hydroxy-3-(quinolin-5-yloxy)-propyl]-piperidine-3-carboxylic acid 1-[4-(phenyl)-butyl]amide]
The “Accumulation Index” value of the first is lower: 9 for the first, 10 for the second.
